According to publication PMC10405735:
Results are given in words; binding and its absence hold for the method and conditions named. Some entries that bind do so weakly or less than the wild type. For some of these results: Sequences can lack the tags named with a protein.

Sequences of proteins named here, by UniProt entry; tags and fusion partners are left off. A change or cut given only in a name is not applied to a line headed by its entry.
UniProt O15218: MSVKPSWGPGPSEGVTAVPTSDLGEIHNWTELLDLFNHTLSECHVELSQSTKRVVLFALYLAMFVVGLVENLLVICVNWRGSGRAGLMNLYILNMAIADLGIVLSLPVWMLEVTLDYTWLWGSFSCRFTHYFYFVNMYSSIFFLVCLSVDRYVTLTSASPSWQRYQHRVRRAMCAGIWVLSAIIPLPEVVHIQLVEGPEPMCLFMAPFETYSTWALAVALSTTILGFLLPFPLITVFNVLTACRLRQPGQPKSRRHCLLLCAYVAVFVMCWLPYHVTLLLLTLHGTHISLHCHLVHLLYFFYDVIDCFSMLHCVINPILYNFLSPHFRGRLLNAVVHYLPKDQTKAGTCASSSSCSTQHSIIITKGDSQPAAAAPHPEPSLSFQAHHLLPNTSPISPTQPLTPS
UniProt P25106: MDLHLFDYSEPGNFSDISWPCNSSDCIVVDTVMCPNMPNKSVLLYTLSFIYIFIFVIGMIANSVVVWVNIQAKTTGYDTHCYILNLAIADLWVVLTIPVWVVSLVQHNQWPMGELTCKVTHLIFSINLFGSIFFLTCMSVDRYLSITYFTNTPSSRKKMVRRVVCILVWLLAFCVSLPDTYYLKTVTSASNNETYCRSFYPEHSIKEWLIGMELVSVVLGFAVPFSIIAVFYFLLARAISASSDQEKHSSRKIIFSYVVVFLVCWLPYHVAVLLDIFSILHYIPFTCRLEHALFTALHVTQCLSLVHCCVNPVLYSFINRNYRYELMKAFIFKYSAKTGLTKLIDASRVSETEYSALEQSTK

Tests used:
[1] = molecular target: T1, hACKR4 (T2A GFP) in 300.19 pre-B cells (human) (UniProt Q9NPB9); assay: flow cytometry on cells; binding: 300.19 pre-B cells stably expressing the receptor (T2A GFP) incubated with 100 or 200 nM fluorescently labelled chemokine at 4°C for 45 min; MFI of parental cells subtracted; only the binder purified
T1 sequence: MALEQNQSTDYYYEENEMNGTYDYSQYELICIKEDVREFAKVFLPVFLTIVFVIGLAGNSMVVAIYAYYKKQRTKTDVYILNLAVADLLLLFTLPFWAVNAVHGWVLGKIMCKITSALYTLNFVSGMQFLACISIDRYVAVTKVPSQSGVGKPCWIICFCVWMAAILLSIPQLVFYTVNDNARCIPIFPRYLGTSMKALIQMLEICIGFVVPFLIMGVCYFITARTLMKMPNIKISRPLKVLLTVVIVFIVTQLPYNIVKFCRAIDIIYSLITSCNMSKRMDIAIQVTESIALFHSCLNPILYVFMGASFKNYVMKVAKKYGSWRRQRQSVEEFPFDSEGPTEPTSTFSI

[2] = molecular target: T2, murine GPR182 (mGPR182), expressed from mGPR182 T2A GFP in 300.19 pre-B cells (mouse) (UniProt P43142); assay: as above
T2 sequence: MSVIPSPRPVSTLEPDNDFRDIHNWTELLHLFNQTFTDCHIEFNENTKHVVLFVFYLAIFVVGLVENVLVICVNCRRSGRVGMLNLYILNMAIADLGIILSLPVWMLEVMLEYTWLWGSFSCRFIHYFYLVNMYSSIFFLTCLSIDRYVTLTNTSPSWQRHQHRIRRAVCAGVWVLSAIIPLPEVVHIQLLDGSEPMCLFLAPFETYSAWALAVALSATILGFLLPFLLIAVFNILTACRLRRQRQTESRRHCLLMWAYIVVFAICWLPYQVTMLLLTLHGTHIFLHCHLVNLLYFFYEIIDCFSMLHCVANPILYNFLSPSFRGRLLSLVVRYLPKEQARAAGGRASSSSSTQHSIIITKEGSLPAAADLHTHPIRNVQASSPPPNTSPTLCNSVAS

[3] = molecular target: human GPR182 (hGPR182), expressed from hGPR182 T2A GFP in 300.19 pre-B cells (human) (UniProt O15218); assay: as above
[4] = molecular target: T1, hACKR4 (T2A GFP) in 300.19 pre-B cells (human); assay: flow cytometry on cells; uptake: 300.19 pre-B cells stably expressing the receptor (T2A GFP), together with parental cells, incubated with 20, 100 or 200 nM fluorescently labelled chemokine at 37°C for 45 min; MFI of parental cells subtracted; only the binder purified
[5] = molecular target: T2, murine GPR182 (mGPR182), expressed from mGPR182 T2A GFP in 300.19 pre-B cells (mouse); assay: as above
[6] = molecular target: human GPR182 (hGPR182), expressed from hGPR182 T2A GFP in 300.19 pre-B cells (human) (UniProt O15218); assay: as above
[7] = molecular target: hACKR3 (T2A GFP) in 300.19 pre-B cells (human) (UniProt P25106); assay: flow cytometry on cells; binding: 300.19 pre-B cells stably expressing the receptor (T2A GFP) incubated with 100 or 200 nM fluorescently labelled chemokine at 4°C for 45 min; MFI of parental cells subtracted; only the binder purified
[8] = molecular target: hACKR3 (T2A GFP) in 300.19 pre-B cells (human) (UniProt P25106); assay: flow cytometry on cells; uptake: 300.19 pre-B cells stably expressing the receptor (T2A GFP), together with parental cells, incubated with 20, 100 or 200 nM fluorescently labelled chemokine at 37°C for 45 min; MFI of parental cells subtracted; only the binder purified
[9] = molecular target: T2, murine GPR182 (mGPR182), expressed from mGPR182 T2A GFP in 300.19 pre-B cells (mouse); assay: flow cytometry on cells; competition binding at 4°C: 300.19 cells expressing mGPR182 or hGPR182 with 3 nM fluorescent chemokine and increasing concentrations of its unlabeled counterpart, 45 min; only the binder purified
[10] = molecular target: T2, murine GPR182 (mGPR182), expressed from mGPR182 T2A GFP in 300.19 pre-B cells (mouse); assay: flow cytometry on cells; competition scavenging at 37°C: 300.19 cells expressing mGPR182 or hGPR182 with 3 nM fluorescent chemokine and increasing concentrations of its unlabeled counterpart, 45 min; only the binder purified

B1: mCCL25, fluorescently labelled (ligand, UniProt O35903 24-144)
chain: QGAFEDCCLGYQHRIKWNVLRHARNYHQQEVSGSCNLRAVRFYFRQKVVCGNPEDMNVKRAMRILTARKRLVHWKSASDSQTERKKSNHMKSKVENPNSTSVRSATLGHPRMVMMPRKTNN
modifications: fluorescent label (AF647 or Dy649), site not stated
- binding [1]: binds
- binding [2]: binds
- binding [3]: binds
- binding [4]: binds
- binding [5]: binds
- binding [6]: binds

B2: mCXCL1, fluorescently labelled (ligand, UniProt P12850 25-96)
chain: APIANELRCQCLQTMAGIHLKNIQSLKVLPSGPHCTQTEVIATLKNGREACLDPEAPLVQKIVQKMLKGVPK
modifications: fluorescent label (AF647 or Dy649), site not stated
- binding [5]: binds weakly
- binding [6]: binds weakly

B3: mCXCL13, fluorescently labelled (ligand, UniProt O55038 22-109)
chain: ILEAHYTNLKCRCSGVISTVVGLNIIDRIQVTPPGNGCPKTEVVIWTKMKKVICVNPRAKWLQRLLRHVQSKSLSSTPQAPVSKRRAA
modifications: fluorescent label (AF647 or Dy649), site not stated
- binding [5]: binds
- binding [6]: binds

B4: hCXCL11, fluorescently labelled (ligand, UniProt O14625 22-94)
chain: FPMFKRGRCLCIGPGVKAVKVADIEKASIMYPSNNCDKIEVIITLKENKGQRCLNPKSKQARLIIKKVERKNF
modifications: fluorescent label (AF647 or Dy649), site not stated
- binding [7]: binds
- binding [2]: binds
- binding [8]: binds
- binding [5]: binds
- binding [6]: binds

B5: mCCL19, fluorescently labelled (ligand, UniProt O70460 26-108)
chain: GANDAEDCCLSVTQRPIPGNIVKAFRYLLNEDGCRVPAVVFTTLRGYQLCAPPDQPWVDRIIRRLKKSSAKNKGNSTRRSPVS
modifications: fluorescent label (AF647 or Dy649), site not stated
- binding [9]: binds
- binding [10]: binds
- binding [5]: binds
- binding [6]: no binding (tested: 200 nM)
